Measurements from the antibiotic and cytotoxicity screens of Wong et al. (2023).
The list shows a part of the results.

Legend:
HSkMC = human skeletal muscle cells; experiment: cytotoxicity call (relative viability < 0.9); conditions: 10 µM
HepG2 = experiment: cytotoxicity call (relative viability < 0.9); conditions: 10 µM
S. aureus RN4220 = experiment: growth inhibition call (relative growth <= 0.2); conditions: 50 µM

Structure (SMILES) | cytotoxicity call (HSkMC) | cytotoxicity call (HepG2) | growth inhibition call (S. aureus RN4220)
C[C@@H]1CCCCO[C@@H](CN(C)S(=O)(=O)c2ccccc2)[C@@H](C)CN([C@H](C)CO)C(=O)c2cc(NC(=O)c3ccccc3)ccc2O1 | inactive | inactive | inactive
C[C@@H]1CN([C@@H](C)CO)C(=O)c2cc(NS(=O)(=O)c3ccc(Cl)cc3)ccc2O[C@@H](C)CCCCO[C@H]1CN(C)Cc1ccccc1 | inactive | inactive | inactive
Cc1cc(C(=O)Nc2cccc3c2O[C@@H](CN(C)S(=O)(=O)c2ccccc2)[C@@H](C)CN([C@H](C)CO)C3=O)n(C)n1 | inactive | inactive | inactive
C=C1c2cccc(O)c2C(=O)C2=C(O)C3(O)C(=O)C(C(N)=O)=C(O)C(N(C)C)C3C(O)C12.Cl (configuration not stated) | inactive | inactive | inactive
C[C@@H]1CCCCO[C@@H](CN(C)Cc2ccc(C(F)(F)F)cc2)[C@@H](C)CN([C@@H](C)CO)C(=O)c2cc(NC(=O)Cc3ccccc3)ccc2O1 | inactive | active | inactive
COCC(=O)Nc1ccc2c(c1)OC[C@H](C)N(C(=O)Cc1ccccn1)C[C@H](C)[C@H](OC)CN(C)C2=O | inactive | inactive | inactive
C[C@H](CO)N1C[C@H](C)[C@H](CN(C)Cc2ccc(C(=O)Nc3ccccc3N)cc2)OCCCC[C@H](C)Oc2ccc(N(C)C)cc2C1=O | inactive | inactive | inactive
Cc1ccc(S(=O)(=O)Nc2ccc3c(c2)C(=O)N([C@@H](C)CO)C[C@H](C)[C@@H](CN(C)C(=O)Nc2cccc4ccccc24)O3)cc1 | inactive | inactive | inactive
CSc1nc(-c2ccccc2)cc(-c2cccs2)c1C#N | inactive | inactive | inactive
C[C@H]1CN([C@@H](C)CO)C(=O)c2cc(NC(=O)Nc3ccc(F)cc3)ccc2O[C@@H]1CN(C)C(=O)Nc1cccc2ccccc12 | inactive | inactive | inactive
C=CC[C@@H](CC(=O)N[C@@H](CO)Cc1ccccc1)C(=O)NC[C@@H](OC(=O)[C@@H](CC=C)Cc1ccc(F)cc1)c1ccccc1 | inactive | inactive | inactive
CC(C)CC#Cc1cnc2c(c1)C(=O)N([C@H](C)CO)C[C@H](C)[C@H](CN(C)S(=O)(=O)c1cn(C)cn1)O2 | inactive | inactive | inactive
C[C@H](CO)N1C[C@H](C)[C@H](CN(C)C(=O)Nc2ccc(C(F)(F)F)cc2)Oc2c(NC(=O)CCCCCC(=O)Nc3ccccc3N)cccc2C1=O | inactive | inactive | inactive
CS(=O)(=O)N1CCN(Cc2cc3nc(-c4cccc5n[nH]cc45)nc(N4CCOCC4)c3s2)CC1 | active | active | inactive
Cc1ccc(S(=O)(=O)N(C)C[C@@H]2Oc3ccc(NS(C)(=O)=O)cc3C(=O)N([C@@H](C)CO)C[C@@H]2C)cc1 | inactive | inactive | inactive
CO[C@H](CN(C)S(=O)(=O)c1ccc(Cl)cc1)[C@@H](C)CN([C@H](C)CO)S(=O)(=O)c1cccc(Cl)c1 | inactive | inactive | inactive
COc1ccc(CN(C)C[C@H]2Oc3c(NC(=O)c4cnccn4)cccc3C(=O)N([C@@H](C)CO)C[C@@H]2C)cc1 | inactive | inactive | inactive
O=C(C[C@H]1C[C@H]2c3cc(NC(=O)C4CCOCC4)ccc3O[C@H]2[C@H](CO)O1)NCc1ccc(Cl)cc1 | inactive | inactive | inactive
C[C@@H]1CN([C@@H](C)CO)C(=O)c2cc(NC(=O)c3ccncc3)ccc2O[C@@H](C)CCCCO[C@H]1CN(C)C(=O)Nc1ccccc1 | inactive | inactive | inactive
Brc1ccc(-c2ccc(C3CCCCC3)cn2)cc1 | inactive | inactive | inactive
Cc1noc(C)c1S(=O)(=O)Nc1ccc2c(c1)C(=O)N([C@@H](C)CO)C[C@@H](C)[C@@H](CN(C)S(=O)(=O)c1cn(C)cn1)OCCCC[C@@H](C)O2 | inactive | inactive | inactive
COc1ccc(S(=O)(=O)N2C[C@H](O)COC[C@@H]3O[C@H](CC(=O)N[C@H]4CCN(Cc5ccccc5)C4)CC[C@H]32)cc1 | inactive | inactive | inactive
CN(C)CCCC[C@@H]1NC(=O)[C@@H]2C[C@H](C(=O)NCCCCCCNC(=O)CS)[C@H](c3cccc(OCCO)c3)N2C1=O | inactive | inactive | inactive
O=C(C[C@H]1CC[C@@H]2[C@H](COC[C@H](O)CN2C(=O)Nc2cccc(F)c2)O1)NCc1ccccc1Cl | inactive | inactive | inactive
